Results published in the supplement of paper PMC12217912.
This is one part of the list. Sequences were assembled here from the parent chain. Values near 0.05 are background.

B1: TEV protease; numbered along this chain (parent)
chain: MGESLFKGPRDYNPISSSICHLTNESDGHTTSLYGIGFGPFIITNKHLFRRNNGTLVVQSLHGVFKVKDTTTLQQHLVDGRDMIIIRMPKDFPPFPQKLKFREPQREERICLVTTNFQTKSMSSMVSDTSCTFPSGDGIFWKHWIQTKDGQCGSPLVSTRDGFIVGIHSASNFTNTNNYFTSVPKNFMELLTNQEAQQWVSGWRLNADSVLWGGHKVFMVKPEEPFQPVKEATQL

Variants of: B1
Assay: raw area under fraction-flipped curve 0-4 h after induction (AUC4h, not background-subtracted), DNA-recorder readout of cleavage of the substrate (dimensionless); higher = more cleavage of the substrate by the protease variant
Conditions: temperature: 34 °C; time window: 0-4 h after rhamnose induction
Procedure: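 In vivo DNA recorder in E. coli TOP10(DE3) ΔrhaA at 34 °C. Each TEVp single-site mutant (parent TEVp 0) is paired with a single-site variant of the 7-mer TEVs (canonical ENLYFQ|S). The substrate sits between flexible linkers in a Bxb1-sfGFP-TEVs-SsrA fusion, so cleavage stabilises Bxb1 and speeds flipping of a recombination array, read by NGS. The value is the raw area under the fraction-flipped curve over 0-4 h after rhamnose induction (AUC4h), with ≥20 reads per time point. It is not background-subtracted; inactive controls average about 0.047.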
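Further: Bxb1 expression induced with 0.2% (w/v) L-rhamnose at OD600 near 0.5, cultures sampled hourly, flipped fraction per protease–substrate barcode pair counted by paired-end Illumina sequencing.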

Row | Variant | area with substrate ENAYFQS | area with substrate ENCYFQS | area with substrate ENDYFQS | area with substrate ENEYFQS | area with substrate ENFYFQS | area with substrate ENGYFQS | area with substrate ENHYFQS | area with substrate ENIYFQS | area with substrate ENKYFQS | area with substrate ENNYFQS | area with substrate ENPYFQS | area with substrate ENQYFQS | area with substrate ENSYFQS | area with substrate ENTYFQS | area with substrate ENWYFQS | area with substrate ENRYFQS | area with substrate ENVYFQS | area with substrate ENYYFQS | area with substrate ENMYFQS
1 | MGESLFKGPRDYNPISSSICHLTNESDGHTTSEYGIGFGPFIITNKHLFRRNNGTLVVQSLHGVFKVKDTTTLQQHLVDGRDMIIIRMPKDFPPFPQKLKFREPQREERICLVTTNFQTKSMSSMVSDTSCTFPSGDGIFWKHWIQTKDGQCGSPLVSTRDGFIVGIHSASNFTNTNNYFTSVPKNFMELLTNQEAQQWVSGWRLNADSVLWGGHKVFMVKPEEPFQPVKEATQL [L33E] | 0.077 | 0.0504 | 0.0473 | 0.056 | 0.0579 | 0.0589 | 0.0742 | 0.0665 | 0.0557 | 0.0583 | 0.0456 | 0.0624 | 0.0672 | 0.0501 | 0.0204 |  |  |  | 
2 | MGESLFKGPRDYNPISSSICHLTNESDGHTTSCYGIGFGPFIITNKHLFRRNNGTLVVQSLHGVFKVKDTTTLQQHLVDGRDMIIIRMPKDFPPFPQKLKFREPQREERICLVTTNFQTKSMSSMVSDTSCTFPSGDGIFWKHWIQTKDGQCGSPLVSTRDGFIVGIHSASNFTNTNNYFTSVPKNFMELLTNQEAQQWVSGWRLNADSVLWGGHKVFMVKPEEPFQPVKEATQL [L33C] | 0.0585 | 0.0579 | 0.065 | 0.0604 |  | 0.0729 | 0.0541 | 0.124 | 0.0699 | 0.0549 | 0.0755 | 0.0532 | 0.0474 | 0.0541 | 0.0626 | 0.0498 | 0.0744 | 0.0466 | 
3 | MGESLFKGPRDYNPISSSICHLTNESDGHTTSLNGIGFGPFIITNKHLFRRNNGTLVVQSLHGVFKVKDTTTLQQHLVDGRDMIIIRMPKDFPPFPQKLKFREPQREERICLVTTNFQTKSMSSMVSDTSCTFPSGDGIFWKHWIQTKDGQCGSPLVSTRDGFIVGIHSASNFTNTNNYFTSVPKNFMELLTNQEAQQWVSGWRLNADSVLWGGHKVFMVKPEEPFQPVKEATQL [Y34N] | 0.0564 | 0.043 | 0.062 | 0.0623 |  |  |  |  |  |  |  | 0.0861 | 0.0649 |  |  | 0.0488 |  |  | 0.0715
4 | MGESLFKGPRDYNPISSSICHLTNESDGHTTSLYGIGFPPFIITNKHLFRRNNGTLVVQSLHGVFKVKDTTTLQQHLVDGRDMIIIRMPKDFPPFPQKLKFREPQREERICLVTTNFQTKSMSSMVSDTSCTFPSGDGIFWKHWIQTKDGQCGSPLVSTRDGFIVGIHSASNFTNTNNYFTSVPKNFMELLTNQEAQQWVSGWRLNADSVLWGGHKVFMVKPEEPFQPVKEATQL [G39P] | 0.0386 | 0.0446 | 0.0434 | 0.0402 | 0.0393 | 0.046 | 0.0343 |  | 0.0431 |  | 0.0472 | 0.0439 | 0.0402 | 0.0442 | 0.0085 | 0.0408 | 0.0397 |  | 0.0484
5 | MGESLFKGPRDYNPISSSICHLTNESDGHTTSLYGIGFGPFIIVNKHLFRRNNGTLVVQSLHGVFKVKDTTTLQQHLVDGRDMIIIRMPKDFPPFPQKLKFREPQREERICLVTTNFQTKSMSSMVSDTSCTFPSGDGIFWKHWIQTKDGQCGSPLVSTRDGFIVGIHSASNFTNTNNYFTSVPKNFMELLTNQEAQQWVSGWRLNADSVLWGGHKVFMVKPEEPFQPVKEATQL [T44V] | 0.0469 | 0.0574 | 0.0414 | 0.0532 | 0.0612 |  | 0.0544 | 0.0819 | 0.0541 |  |  | 0.0565 | 0.057 | 0.053 | 0.0525 | 0.0577 | 0.0515 | 0.0591 | 0.0492
